Assay results as given in publication PMC7722873 (Scientific Reports, 2020).

Settings: G8 compared with G5 (Fig. 1B)

Sequence: FQVVKFRFWVWWFRWR [G8]
- Cytotoxicity: lower cytotoxicity
